# In PubChem BioAssay AID1768 (National Center for Advancing Translational Sciences (NCATS), 2009):
# Screen size: about 270,000 compounds; about 620 (0.23%) were called active. Inconclusive results, whose numbers are uncertain, are shown with a selection of clear calls. Calls come from the whole dose curve; as a rule, active = well fitted inhibition curve with a large enough effect in the polarisation, with a control signal flat (not every such curve was filed as active); inconclusive = small, poorly fitted or top-dose-only effect, or effect the other way, or a change in a side signal; inactive = no such curve, though single readings can be large or run the other way; the % refers to the polarisation. Potencies of inconclusive entries are doubtful fits and often do not repeat. “Side channel” marks fits to a control or component signal instead of the main read-out.
# Target: Menin (Homo sapiens) (UniProt O00255)
# Assay: qHTS Assay for Inhibitors Targeting the Menin-MLL Interaction in MLL Related Leukemias: Competition With Texas Red Labeled MLL-derived Mutant Peptide; for FP activity change, negative = inhibition: % of control where 0% means no effect
# Settings: fluorescence polarization; FP activity change, negative = inhibition: at 61.6 µM (top of the series)
# Potency is the fitted concentration of half-maximal effect; tags give direction and shape of the fitted curve or compound fluorescence and quenching.
# UniProt O00255, sequence (O00255 whole entry, looked up): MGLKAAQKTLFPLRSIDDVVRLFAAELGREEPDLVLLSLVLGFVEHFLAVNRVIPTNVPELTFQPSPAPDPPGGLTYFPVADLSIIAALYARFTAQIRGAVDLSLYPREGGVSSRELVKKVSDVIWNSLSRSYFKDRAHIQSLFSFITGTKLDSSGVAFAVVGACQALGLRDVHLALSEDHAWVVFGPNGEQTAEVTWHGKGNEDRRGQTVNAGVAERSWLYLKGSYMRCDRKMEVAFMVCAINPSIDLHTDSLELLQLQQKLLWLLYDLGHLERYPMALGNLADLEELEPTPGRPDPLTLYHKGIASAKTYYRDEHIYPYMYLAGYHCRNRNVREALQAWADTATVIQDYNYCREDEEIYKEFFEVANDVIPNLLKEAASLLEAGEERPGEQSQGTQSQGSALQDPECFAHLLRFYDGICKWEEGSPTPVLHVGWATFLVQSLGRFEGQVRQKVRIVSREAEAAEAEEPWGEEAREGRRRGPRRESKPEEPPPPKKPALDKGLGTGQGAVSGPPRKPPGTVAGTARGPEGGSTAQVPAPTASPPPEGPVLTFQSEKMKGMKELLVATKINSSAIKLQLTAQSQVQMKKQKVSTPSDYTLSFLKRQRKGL
SMILES,Potency,"FP activity change, negative = inhibition"
COc1ccc(NC(=O)Nc2ccc3c(c2)CCC3)c(OC)c1,"inconclusive: 31.6 µM [quencher, side channel, single point]",–
CCOC(=O)c1c(NC(=O)Nc2ccc(Cl)cc2)sc(C)c1C,"inconclusive: 3.55 µM [quencher, side channel, full curve, poor fit]",–
N/C(Cc1ccc(Cl)cc1)=N\OC(=O)c1ccc2ccccc2c1,"inconclusive: 39.8 µM [inhibitor, single point]",–
Cc1cccn2c(=O)c(/C=C(\C#N)C(N)=O)c(N3CCN(Cc4ccc5c(c4)OCO5)CC3)nc12,"inconclusive: 28.2 µM [fluorescent, side channel, single point]",–
CCOC(=O)c1c(N)sc(C(=O)Nc2ccc3c(c2)OCO3)c1C,"inconclusive: 25.1 µM [quencher, side channel, single point]",–
COc1cccc(-n2c(N)c(-c3nc4ccccc4[nH]3)sc2=S)c1,"inconclusive: 14.1 µM [quencher, side channel, partial curve]",–
O=C(O)c1cccc(S(=O)(=O)N(Cc2ccccc2)c2cccc(C(F)(F)F)c2)c1,"inconclusive: 12.6 µM [quencher, side channel, partial curve, poor fit]",–
CN1/C(=C\C(=O)c2ccco2)C(C)(C)c2ccccc21,"inconclusive: 28.2 µM [fluorescent, side channel, partial curve]",–
O=Cc1ccccc1OCCN1CCCC1=O,"inconclusive: 20 µM [inhibitor, partial curve, poor fit]",–
O=C(c1ccc(COc2ccccc2Cl)o1)N1CCN(Cc2ccc3c(c2)OCO3)CC1,"inconclusive: 20 µM [fluorescent, side channel, partial curve]",–
CCc1ccccc1NC(=O)CSC1=C(C#N)C(c2ccc(O)c(OC)c2)C2=C(CCCC2=O)N1 (stereo unspecified),"inconclusive: 39.8 µM [inhibitor, single point]",–
CCCCCCOC(=O)C1=C(C)NC(=O)NC1c1ccc2c(c1)OCO2 (stereo unspecified),"inconclusive: 14.1 µM [fluorescent, side channel, partial curve]",–
Cc1c2cnn(CC(=O)Nc3c(F)c(F)cc(F)c3F)c(=O)c2c(C)n1Cc1ccccc1F,active: 12.6 µM,–
COc1ccccc1NC(=O)c1cc(C(=O)Nc2ccccc2OC)cc([N+](=O)[O-])c1,"inconclusive: 12.6 µM [quencher, side channel, partial curve]",–
NC(=O)c1ccccc1NC(=O)/C=C/c1cccc(Cl)c1,"inconclusive: 25.1 µM [quencher, side channel, partial curve]",–
CCc1ccccc1OCCCCN1CCCCC1,"inconclusive: 28.2 µM [inhibitor, single point]",–
Cc1ccc(C)c(NC(=S)N(Cc2ccc(Cl)cc2)Cc2ccc(C(=O)O)cc2)c1,"inconclusive: 12.6 µM [quencher, side channel, partial curve]",–
COc1ccc(NS(=O)(=O)c2ccc3nc(COc4ccc5ccccc5c4)[nH]c3c2)cc1,"inconclusive: 8.91 µM [inhibitor, single point]",–

SMILES,Potency,"FP activity change, negative = inhibition"
Cc1cc(C)n(-c2nnc(C)n2/N=C/c2cc(Br)ccc2OCc2ccccc2)n1,"inconclusive: 17.8 µM [fluorescent, side channel, partial curve]",–
Cc1cc(NC(=O)CCC(=O)N(c2ccccc2)C(C(=O)NC2CCCC2)c2ccccc2F)no1 (stereo unspecified),–,inactive: -21.3%
Cc1oc2c(CN3CCCCC3C)c(O)ccc2c(=O)c1-c1ccc(Br)cc1 (stereo unspecified),"inconclusive: 14.1 µM [fluorescent, side channel, partial curve, poor fit]",–
CCCC(=O)O[C@H]1C[C@@H](C)N(C(=O)c2ccccc2)c2ccc(C)cc21,"inconclusive: 1.78 µM [fluorescent, side channel, full curve]",–
N#CC1=C(N)OC2=C(C(=O)CCC2)C1C1C=CCCC1 (stereo unspecified),–,inactive: 11.3%
COc1ccc(CCN(C)C2CCCN(C(=O)c3sccc3C)C2)cc1OC (stereo unspecified),"inconclusive: 3.16 µM [inhibitor, partial curve]",–
COc1cccc(/C=N/Nc2nc(Nc3ccc([N+](=O)[O-])cc3)nc(N3CCCC3)n2)c1O,"inconclusive: 2.82 µM [quencher, side channel, full curve]",–
CCOC(=O)N1CCN(C(=O)c2cn(CC(C)C)c(=O)c3c2c2ccccc2n3C)CC1,–,inactive: -8.74%
CC(=O)OC1CC2C(C)(C)C(O)CC[C@@]2(C)C2CC[C@@]3(C)C(c4ccoc4)OC(=O)C4O[C@@]43[C@]12C (stereo partly specified),–,inactive: 5.07%
CCN1C(=O)/C(=C2\C=Cc3ccccc3N2CC)SC1=S,"inconclusive: 11.2 µM [quencher, side channel, partial curve]",–
COc1ccc(N2CCN(C(=O)c3c(-c4c(F)cccc4Cl)noc3C)CC2)cc1,"inconclusive: 11.2 µM [inhibitor, partial curve]",–
Cc1ccc(-c2cc(-c3ccc(Cl)cc3)c(C#N)c(N)n2)o1,"inconclusive: 35.5 µM [quencher, side channel, single point]",–
Cc1ccccc1C(=O)Oc1ccc(Sc2ccc(O)cc2)cc1,"inconclusive: 39.8 µM [quencher, side channel, single point]",–
Cc1ccc(C(=O)Nc2ccc(OCc3ccccc3)cc2)s1,"inconclusive: 6.31 µM [inhibitor, full curve]",–
N#Cc1c(NC(=O)/C=C/c2ccco2)sc2c1CCCC2,"inconclusive: 10 µM [quencher, side channel, partial curve]",–
CCOc1ccc(Nc2nc(-c3sc(N)nc3C)cs2)cc1,"inconclusive: 25.1 µM [quencher, side channel, partial curve]",–
O=C(Cc1nnc(NC(=O)c2ccccc2)s1)N/N=C/c1ccco1,"inconclusive: 39.8 µM [inhibitor, single point]",–
Nc1ccccc1Nc1cc(-c2ccccc2)nn1-c1cccc(Cl)c1,"inconclusive: 14.1 µM [quencher, side channel, partial curve]",–
